The campaign covered roughly 310,000 compounds. About 18,000 (5.8%) were called active. The shares of active, inactive and inconclusive entries below differ from those in the screen. The call rests on the fitted dose curve; in most records, active means well fitted inhibition curve with a large enough effect; inconclusive means small, poorly fitted or top-dose-only effect, or another doubt; inactive means no such curve, though single readings can be large or run the other way. No potency is given beside an inconclusive call; the fits are too rough.
test: Primary qHTS for delayed death inhibitors of the malarial parasite plastid, 48 hour incubation; conditions: P. falciparum luciferase growth in erythrocytes; series mostly up to 28.7 µM; activity change, negative = inhibition: at the top concentration
Summary of the method: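 Erythrocytes infected with P. falciparum carrying an integrated firefly luciferase reporter (2% hematocrit, 0.1% parasitemia final) were exposed to compounds in RPMI 1640 with 0.5% Albumax at 37 C, 5% CO2. Growth inhibition was scored as reduced luminescence.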
On the % scale 0 is the no-effect control and ±100 the full control effect; potency means the concentration at half of the fitted maximal effect; tags describe the fitted curve by direction and shape.

| Compound | Potency | activity change, negative = inhibition |
| --- | --- | --- |
| COc1ccc(C(C)=O)cc1CSC(=N)N | inconclusive [inhibitor, partial curve, poor fit] |  |
| C/C(=C\C=C(C#N)C#N)c1cc(C#N)c(N)o1 | inconclusive [inhibitor, single point] |  |
| O=C(NC1CCCc2ccccc21)c1n[nH]c(=O)c2ccccc12 (centres undefined) | inconclusive [inhibitor, partial curve, poor fit] |  |
| CCc1cccc2sc(NC(=O)C3CC3)nc12 |  | inactive: -7.51% |
| COc1ccc(C(CNC(=O)c2cccc(S(=O)(=O)Nc3cccc(C)c3)c2)N2CCOCC2)cc1 (centres undefined) | inconclusive [inhibitor, single point] |  |
| Cc1cccc(C)c1Nc1nnc(SCC(=O)NCc2ccco2)s1 | inconclusive [inhibitor, single point] |  |
| CCCS(=O)(=O)N1CCC(C(=O)Oc2ccc(OC)cc2)CC1 | inconclusive [inhibitor, full curve, poor fit] |  |
| CCOc1ccc(N2CC(C(=O)Nc3nnc(Cc4ccc(OC)c(OC)c4)s3)CC2=O)cc1 (centres undefined) | inconclusive [inhibitor, partial curve, poor fit] |  |
| O=C(NCCc1ccccc1)C(c1cccs1)N(C(=O)c1csnn1)C1CC1 (centres undefined) |  | inactive: -11.9% |
| O=C(Oc1ccc2c3c(c(=O)oc2c1)CCCC3)c1cccs1 |  | inactive: 19.7% |
| CN1CCN(C(c2cccc(Cl)c2)c2ccccc2Cl)CC1 (centres undefined) | inconclusive [inhibitor, single point] |  |
| Cc1sc2nc(SCc3nc(-c4cccs4)no3)n(-c3ccccc3)c(=O)c2c1C | inconclusive [inhibitor, single point] |  |
| O=S1(=O)N(CCN2CC=C(c3c[nH]c4cc(F)ccc34)CC2)c2cccc3c2N1CCC3 | active: 1.17 µM |  |
| COC(=O)c1ccc2c(=O)n(CCCN3CCOCC3)c(=S)[nH]c2c1 |  | inactive: -16% |
| CC(=O)Nc1sc(C)c(C)c1C(=O)OCC(=O)NC(C)c1ccccc1 (centres undefined) | inconclusive [inhibitor, partial curve, poor fit] |  |
| Cc1cc(C)cc(Nc2cnn(C34CC5CC(CC(CC(=O)O)(C5)C3)C4)c(=O)c2Cl)c1 | inconclusive [inhibitor, single point] |  |
| COc1ccc(CS(=O)(=O)CC(C)(O)c2ccccc2Cl)cc1 (centres undefined) |  | inactive: 1.27% |
| COCCN(C(=O)COC(=O)/C=C/c1ccc2ccccc2n1)c1c(N)n(Cc2ccccc2)c(=O)[nH]c1=O | inconclusive [inhibitor, full curve, poor fit] |  |
| O=C(NCCc1ccccc1)C1c2ccccc2C(=O)N1C1CC1 (centres undefined) | inconclusive [inhibitor, full curve, poor fit] |  |
| COc1cc2c(cc1NC(=O)c1ccc3c(c1)OCO3)oc1ccccc12 |  | inactive: 100% |
| COc1ccc(CCNC(=O)c2c([S-])n(-c3ccc(C)cc3)c3cccc[n+]23)cc1 | inconclusive [inhibitor, partial curve] |  |
| Cc1ccccc1Cn1ccc(NC(=O)c2nn(C)cc2[N+](=O)[O-])n1 |  | inactive: 43.5% |
| Cc1cccc(C)c1NC(=O)CN(c1ccccn1)S(=O)(=O)c1ccccc1 | inconclusive [inhibitor, single point] |  |

| Compound | Potency | activity change, negative = inhibition |
| --- | --- | --- |
| CCOC(=O)c1nc2sc3c(c2c(=O)[nH]1)CCC(C)C3 (centres undefined) | inconclusive [inhibitor, partial curve] |  |
| NS(=O)(=O)c1ccc(CCNC(=O)CSc2nc3ccsc3c(=O)n2CCCCC(=O)O)cc1 |  | inactive: 24.6% |
| Cc1cc(N/N=C/c2ccccc2[N+](=O)[O-])nc(-n2nc(C)cc2C)n1 | active: 0.928 µM |  |
| O=C(NC(=S)N1CCOCC1)c1cc2ccccc2o1 |  | inactive: 29.1% |
| CC1CCCN(S(=O)(=O)c2ccc(NC(=O)c3cccc(-n4cnnn4)c3)cc2)C1 (centres undefined) | active: 11.7 µM |  |
| COc1ccc(OCCOC(=O)c2nc3nccc(C)n3n2)cc1 | inconclusive [inhibitor, full curve, poor fit] |  |
| N/C(=N\OC(=O)c1ccccc1[N+](=O)[O-])c1cccnc1 |  | inactive: 70.8% |
| COc1cc(/C=C/[N+](=O)[O-])ccc1OC(=O)/C=C/c1ccc(F)cc1 |  | inactive: -0.904% |
| COc1cc(-c2noc(C)c2C#Cc2ccsc2)cc(OC)c1OC | inconclusive [inhibitor, partial curve, poor fit] |  |
| COc1ccccc1OCC(=O)NNC(=O)c1c(-c2ccccc2Cl)noc1C |  | inactive: 1.19% |
| CCc1ccccc1OCC(=O)Nc1cccc(S(=O)(=O)N2CCCC2)c1 | inconclusive [inhibitor, single point] |  |
| O=C(CSc1nncs1)NNC(=O)c1ccco1 |  | inactive: -6.04% |
| CCCOC(=O)Nc1ccc(N2CCCCC2)cc1 |  | inactive: 132% |
| O=c1[nH]c(=O)n(Cc2ccccc2)c2nc(-c3ccc(C(F)(F)F)cc3)n(CCO)c12 | inconclusive [inhibitor, single point] |  |
| Cc1sc(NC(=O)C2CCCCC2C(=O)O)c(C(N)=O)c1-c1ccc(C(C)(C)C)cc1 (centres undefined) |  | inactive: 2% |
| COc1cc([N+](=O)[O-])cc(CN2CCCCC2)c1O | inconclusive [inhibitor, partial curve, poor fit] |  |
| O=C1CSC(c2ccc([N+](=O)[O-])cc2)N1CCN1CCCCC1 (centres undefined) |  | inactive: 31.6% |
| CCOc1cc(OCC)cc(C(=O)O)c1 | inconclusive [inhibitor, partial curve, poor fit] |  |
| Cc1ccccc1NC(=O)CN1CCOCC1 |  | inactive: 25.6% |
| COC(=O)c1ccc(C(c2c(N)n(Cc3ccccc3)c(=O)n(C)c2=O)N2CCOCC2)cc1 (centres undefined) | inconclusive [inhibitor, single point] |  |
| CC(=O)Nc1ccc(O)cc1[N+](=O)[O-] |  | inactive: 22.8% |
| COc1ccc(C(=O)NCC(=O)N2CCCC(C(F)(F)F)C2)cc1OC (centres undefined) |  | inactive: 0% |
| Cc1cc(N2CC(C(=O)NCc3cccs3)CC2=O)ccc1C(C)C (centres undefined) | inconclusive [inhibitor, partial curve, poor fit] |  |

| Compound | Potency | activity change, negative = inhibition |
| --- | --- | --- |
| O=C(N/N=C/c1cn(-c2ccccc2)nc1-c1ccc(F)cc1)c1ccc(Br)o1 | active: 8.28 µM |  |
| Cn1nc(C(=O)N2CCN(S(=O)(=O)/C=C/c3ccccc3)CC2)c2ccccc2c1=O | inconclusive [inhibitor, partial curve, poor fit] |  |
| COc1ccccc1CCNC(=O)c1ccc(NC(=O)CC2SC(N3CCCC3)=NC2=O)cc1 (centres undefined) | inconclusive [inhibitor, partial curve, poor fit] |  |
| NC(=O)C1CCN(CC(=O)N2c3ccccc3CCc3ccccc32)CC1 | inconclusive [inhibitor, single point] |  |
| COc1ccccc1CC(=O)NN1C(=O)NC2(CCC(C)CC2)C1=O (centres undefined) | inconclusive [inhibitor, single point] |  |
| O=C1/C(=C/c2cccc(Cl)c2)SC(=S)N1CCC(=O)N1CCCCC1CCO (centres undefined) | inconclusive [inhibitor, partial curve] |  |
| Cc1ccccc1CSCCNC(=O)c1ccccc1 | active: 11.7 µM |  |
| COc1ccc(N2C(=O)[C@@H]3[C@H](C2=O)[C@H](C(=O)c2ccc(OC(C)=O)cc2)N2N=CC=C[C@@H]32)cc1 |  | inactive: 25.9% |
| C(=N\Nc1nc(N2CCCCCC2)nc(N2CCCCCC2)n1)/c1ccccc1 | inconclusive [inhibitor, partial curve, poor fit] |  |
| COc1ccc(CN(C(=O)c2cccs2)C(C(=O)NC2CCCCC2)c2ccc3ncccc3c2)cc1 (centres undefined) | inconclusive [inhibitor, partial curve] |  |
| Cc1cccc(N2CCN(C(=S)Nc3ccc4nc(N5CCN(C)CC5)cc(C)c4c3)CC2C)c1 (centres undefined) | inconclusive [inhibitor, partial curve, poor fit] |  |
| CCCC(C)NC(=O)/C=C/c1cccc([N+](=O)[O-])c1 (centres undefined) | inconclusive [inhibitor, single point] |  |
| COc1ccc(N2CCN(C(=O)CN(C)S(=O)(=O)c3cc(C)ccc3OC)CC2)cc1 | inconclusive [inhibitor, partial curve] |  |
| Cc1cccc(NC(=O)Cn2c(O)c(N=NC(=O)c3ccncc3)c3ccccc32)c1 | inconclusive [inhibitor, partial curve, poor fit] |  |
| CCOC(=O)CNC(=O)CSc1nnc(NC(=O)c2ccccc2Cl)s1 |  | inactive: 6.06% |
| COc1ccc(C(=O)Nc2ccccc2N2CCOCC2)cc1S(=O)(=O)N1CCCC1 | inconclusive [inhibitor, single point] |  |
| COc1ccc(C(C(=O)NCC2CCCO2)N(C(=O)CNC(=O)c2ccco2)c2ccc(C)c(C)c2)cc1OC (centres undefined) | inconclusive [inhibitor, partial curve] |  |
| CCn1nc(C(=O)OCc2cccc(S(=O)(=O)N(C)C)c2)c2ccccc2c1=O |  | inactive: 75.4% |
| CCN1CCSc2ccc(C(=O)NCc3ccccc3F)cc21 | inconclusive [inhibitor, single point] |  |
| Cc1ccc(NC(=O)COC(=O)CCn2c(C)csc2=O)cc1S(=O)(=O)N1CCOCC1 | inconclusive [inhibitor, single point] |  |
| COc1ccc(OC)c(Nc2nc(N)nc(-c3cc4ccccc4o3)n2)c1 | inconclusive [inhibitor, single point] |  |
| COc1ccccc1NC(=O)C(C)NS(=O)(=O)c1ccc(F)cc1 (centres undefined) |  | inactive: -24% |
| COc1cccc(NC(=O)NCCN2CCCCC2)c1 | inconclusive [inhibitor, single point] |  |
